Data reported in PubChem BioAssay AID1345082 (National Center for Advancing Translational Sciences (NCATS), 2018).
About 4,000 (4.3%) of roughly 94,000 compounds were called active. This list was built around the results that the source calls inconclusive (neither active nor inactive); the mix of calls is not that of the screen. Calls come from the whole dose curve; as a rule, active = well fitted inhibition curve with a large enough effect; inconclusive = small, poorly fitted or top-dose-only effect; inactive = no such curve, though single readings can be large or run the other way. A potency beside an inconclusive call is a rough fit, not a confirmed value.

Test: Cytotoxic Profiling in NIH 3T3 Cell Line of Diverse Libraries Using Quantitative High-Throughput Screening; note: nearly all actives have a fitted effect of over 55% in size
Details: NIH 3T3 viability, CellTiter-Glo ATP luminescence, 48-72 h; series mostly up to 96.7 µM
How it was run: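 Cytotoxicity was measured by CellTiter-Glo ATP luminescence after 48 or 72 h compound exposure at 37 °C. Mouse NIH 3T3 fibroblasts were seeded at 400 cells/well and dosed by 23 nL pin transfer.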
Potency is the fitted concentration of half-maximal effect; tags give direction and shape of the fitted curve.

| SMILES | Potency |
| --- | --- |
| CCOc1ccccc1NC(=O)N1CCCCCCNC(=O)CC1c1ccccc1 (stereo unspecified) | inconclusive: 50.1 µM [inhibitor, partial curve, poor fit] |
| CCOC(=O)[C@@H]1[C@@H](O)C(=O)N(Cc2ccccc2)C12CCN(C(=O)CCc1ccccc1)CC2 | inconclusive: 50.1 µM [inhibitor, partial curve, poor fit] |
| CCn1c2c(c(=O)n1-c1ccccc1)CCN(Cc1cccnc1OC)C2 | inconclusive: 89.1 µM [inhibitor, partial curve, poor fit] |
| Cn1cccc1C(=O)N1C[C@@H](COCC2CC2)[C@H](c2ccccn2)C1 | inactive |
| c1cncc(-c2cc(-c3ccc4cn[nH]c4c3)cn3cncc23)c1 | inconclusive: 5.62 µM [inhibitor, full curve, poor fit] |
| COc1cccc(C(=O)N2CCN(c3cc(C(F)(F)F)ncn3)CC2)c1OC | inactive |
| CCc1nc(-c2ccc(OC3CCN(S(=O)(=O)c4cn(C)cn4)C3)cc2)no1 (stereo unspecified) | inactive |
| O=C(Cc1ccc(F)cc1)N1CCN(c2cc(C(F)(F)F)ncn2)CC1 | inconclusive: 39.8 µM [inhibitor, partial curve] |
| CN[C@@H]1[C@H](O)[C@H](CO)O[C@@H]1CNC1CCCCC1 | inactive |
| Cc1cc(C(=O)NCC2Cn3cccc3CN2C)nn1C (stereo unspecified) | inactive |
| O=C(c1ccc2nc(-c3ccncc3)oc2c1)N1CCCCC1 | inconclusive: 56.2 µM [inhibitor, partial curve, poor fit] |
| Cn1ncc2c(C(=O)NCc3ccc(F)cc3F)cc(-c3ccccc3F)nc21 | inconclusive: 22.4 µM [inhibitor, partial curve, poor fit] |
| CC(c1cccs1)N(C)Cc1cccnc1 (stereo unspecified) | inactive |
| CC(=O)N1CCCC2(C1)CN(C)c1ccc(C(=O)NCC(C)C)cc12 (stereo unspecified) | inconclusive: 112 µM [inhibitor, single point] |
| CC1=C[C@@H](CO)[C@H](C(C)C)C[C@H]1CC(=O)N1CCN(c2ccccn2)CC1 | inconclusive: 56.2 µM [inhibitor, partial curve, poor fit] |
| COc1ccc(-c2noc(-c3cccn3CC(=O)Nc3cccc(F)c3)n2)cc1F | inactive |
| Cc1ccc(C(=O)N2CCCN(c3cc(-c4ccc(F)cc4)[nH]n3)CC2)cc1 | inconclusive: 39.8 µM [inhibitor, partial curve] |
| O=C1N(C2CCOCC2)C[C@H]2CN(Cc3ccc(F)cc3)CCN12 | inactive |
| CCOc1ccc(C(=O)N2CCN(c3cc(-c4cccs4)[nH]n3)CC2)cc1 | inconclusive: 35.5 µM [inhibitor, partial curve] |
| C[C@@H](NC(=O)Nc1ccc(Cl)cc1)c1onc(-c2ccc(F)cc2)c1C(=O)O | inconclusive: 100 µM [inhibitor, partial curve, poor fit] |
| CCC1Oc2ccc(NC(=O)Cc3ccc(F)cc3)cc2CN(Cc2ccc(OC)cc2)C1=O (stereo unspecified) | inconclusive: 12.6 µM [inhibitor, full curve] |
| COc1ccc(-n2c(=O)c3c(n2Cc2ccccc2)CN(C(=O)COc2ccccc2)CC3)cc1 | active: 39.8 µM |

| SMILES | Potency |
| --- | --- |
| Cn1cc(-c2cnc(Nc3ccc(F)cc3)c3c2CCO3)cn1 | inconclusive: 56.2 µM [inhibitor, partial curve, poor fit] |
| COCCN1Cc2nc(-c3cnn(Cc4ccccc4)c3)ccc2OCC1=O | active: 44.7 µM |
| Cc1ccc(C(=O)N2CCC3(CC2)CC(N(Cc2ccc(F)cc2)C2CC2)CCO3)cc1 (stereo unspecified) | inconclusive: 44.7 µM [inhibitor, partial curve, poor fit] |
| COCCNC(=O)c1nc(-c2ccccc2OC)c2cnccn12 | inconclusive: 44.7 µM [inhibitor, partial curve, poor fit] |
| COc1ccc(Nc2ccnc(N3CCC(C(=O)N4CCC(c5ccccc5)CC4)CC3)n2)cc1 | active: 20 µM |
| COc1ccc(-c2nc(C3CC3)nc3c2CCN(C(=O)c2ccc(C)cc2)CC3)cc1 | inactive |
| O=C(c1cn(CCCc2ccccc2)nn1)N1CCC(OCc2cccnc2)CC1 | inconclusive: 50.1 µM [inhibitor, partial curve, poor fit] |
| Cc1nnnn1CCCN1C[C@H](NC(=O)CC2CCC2)[C@@H](C(C)C)C1 | inactive |
| CC(C)[C@@H](N)C(=O)N1CCC(Oc2ccccc2F)(C(=O)O)CC1 | inactive |
| Cc1ccc2c(n1)N(C)[C@H](CO)CCN(Cc1ccccc1Cl)C2 | inconclusive: 100 µM [inhibitor, partial curve] |
| O=c1cc(-c2ccccn2)oc2c(Nc3ccccc3)nccc12 | inconclusive: 10 µM [inhibitor, full curve, poor fit] |
| CCOC(=O)C1CCN(C(=O)C2COC3(CCC(C)CC3)N2C(=O)c2cccc(F)c2)CC1 (stereo unspecified) | inactive |
| O=C(Nc1ccc2ncnc(N3CCCCC3)c2c1)c1ccc(F)c(F)c1 | inconclusive: 44.7 µM [inhibitor, partial curve, poor fit] |
| CCOC(=O)C(Cc1cccc(N2CCN([S+](=O)([O-])c3ccccc3F)CC2)c1)OC (stereo unspecified) | inconclusive: 44.7 µM [inhibitor, partial curve, poor fit] |
| OC1CC(c2cc(NCCc3nc(Cc4ccccc4)no3)ncn2)C1 (stereo unspecified) | inconclusive: 2.82 µM [inhibitor, full curve, poor fit] |
| COCCN1CC(CO)C2(CCN(Cc3ccc(F)c(Cl)c3)CC2)C1 (stereo unspecified) | inconclusive: 44.7 µM [inhibitor, partial curve, poor fit] |
| COC(=O)[C@@H]1Cc2ncn(Cc3ccc(OC)cc3)c2CN1S(=O)(=O)c1cccc2c(N(C)C)cccc12 | inconclusive: 89.1 µM [inhibitor, partial curve, poor fit] |
| CNC(=O)c1cc(C)nc2onc(C3CCN(C(=O)c4ccccc4C)CC3)c12 | inactive |
| O=C(Cn1ccn2nc3c(c2c1=O)CCCCC3)Nc1ccc(F)c(F)c1 | inconclusive: 44.7 µM [inhibitor, partial curve, poor fit] |
| Cc1cc(C)c(CNC(=O)c2nc(Nc3ccccc3)cc3[nH]ccc23)c(=O)[nH]1 | inconclusive: 79.4 µM [inhibitor, partial curve, poor fit] |
| N#CC1CCN(C(=O)C2CCN(C(=O)c3ccc(-c4cncnc4)cc3)CC2)CC1 | inactive |
| CCCCN1CCN(C(=O)C2(c3ccc(NC(=O)C(C)C)cc3)CCCCC2)CC1 | inactive |

| SMILES | Potency |
| --- | --- |
| COc1ccc2nc([C@H]3CCN(Cc4cccnc4)C3)[nH]c2c1 | inactive |
| COC1C(=O)N(c2cccc(F)c2)C12CCN(Cc1sccc1C)CC2 (stereo unspecified) | inconclusive: 50.1 µM [inhibitor, partial curve, poor fit] |
| c1coc(CN2CC(Oc3ccc(-c4noc(-c5ccncc5)n4)cc3)C2)c1 | inconclusive: 11.2 µM [inhibitor, full curve, poor fit] |
| COc1cc(F)ccc1-c1nccc2c(=O)cc(N3CCN(C)CC3)oc12 | inconclusive: 89.1 µM [inhibitor, partial curve] |
| COc1ccccc1C(=O)N1CCCn2nc(C)c(-c3ccccc3C(C)C)c21 | inconclusive: 89.1 µM [inhibitor, partial curve] |
| CCCC1CCCN1C(=O)c1coc(COc2ccc3ccc(OC)cc3c2)n1 (stereo unspecified) | inconclusive: 50.1 µM [inhibitor, partial curve, poor fit] |
| O=C(c1cnccn1)N1CCc2c(n(Cc3ccccc3)n(-c3ccccc3)c2=O)C1 | inconclusive: 44.7 µM [inhibitor, partial curve, poor fit] |
| O=C(C1CCN([S+](=O)([O-])c2ccccc2)C1)N1CCC(c2nc3ncccc3[nH]2)CC1 (stereo unspecified) | inactive |
| COc1ccc(NC(=O)CC2CCCN(c3cnn(CC4CC4)c(=O)c3)C2)cc1 (stereo unspecified) | active: 28.2 µM |
| CC(C)Cn1ccc2c(NC(=O)C[C@H]3NC(=O)c4ccccc4NC3=O)cccc21 | active: 28.2 µM |
| Cc1nn(-c2ccccc2)c2c1C(C1CC1)N(C1CN(C(=O)c3cccnc3)C1)C2=O (stereo unspecified) | inconclusive: 50.1 µM [inhibitor, single point] |
| CCCN(C)C(=O)c1cn2cc(-c3cccc(Cl)c3)n(CC=C(C)C)c(=O)c2n1 | active: 39.8 µM |
| N#Cc1ccc(CN2C[C@@H](CO)[C@H](c3ccccn3)C2)cc1 | inactive |
| COc1cncc(Nc2ncc(-c3cccnc3)c3c2OCC3)c1 | inconclusive: 89.1 µM [inhibitor, partial curve, poor fit] |
| O=C(NCc1ccc(F)cc1)c1cc(C2CC2)nc2onc(C3CCCNC3)c12 (stereo unspecified) | inconclusive: 70.8 µM [inhibitor, partial curve, poor fit] |
| c1csc(-c2ccnc3nc(C4CCC4)nn23)c1 | inconclusive: 44.7 µM [inhibitor, partial curve] |
| COCCN1C[C@H]2COc3ccc(C)cc3[C@H]2N(C(=O)CC(C)C)CCC1=O | inconclusive: 44.7 µM [inhibitor, partial curve, poor fit] |
| COc1ccc(Nc2cnc3ccc(-c4ccccc4OC)nn23)cc1OC | inconclusive: 35.5 µM [inhibitor, partial curve, poor fit] |
| O=C(NCCc1ccccc1)c1cn2cc(-c3cccc(C(F)(F)F)c3)sc2n1 | inactive |
| O=C(NCCC1CCN(C(=O)Nc2ccccc2F)CC1)c1ccccc1F | inactive |
| COc1ccc(C2(C(=O)N3CCC4(CC3)N(C)C(=O)CS4=O)CC2)cc1 (stereo unspecified) | inactive |
| Cc1noc(C)c1[S+](=O)([O-])N1CCc2nc(C(C)C)nc(-c3ccc(Cl)cc3)c2C1 | inactive |
